This passage reports relative growth results from the supplement of paper PMC9446081.

The structures appear in SMILES notation. Screen size: about 39,000 compounds; about 220 (0.56%) showed activity. The list shows a part of the results.
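Also: static incubation at 37 °C against the wild-type strain, values averaged over two biological replicates.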

The experiment relates to Escherichia coli K-12 BW25113. As to the kind of experiment: relative growth (OD600 normalised to plate interquartile mean) (fraction); higher = less growth inhibition, active = 0.2 or less. The settings on record: 50 µM; LB; incubation time: overnight (16-24 h).
In the case of `NCC[C@@H]1CC[C@@H](NC(=O)C2CCC2)[C@H](CO)O1`, the relative growth is inactive: 1.
Under `C[C@@H]1CN([C@H](C)CO)S(=O)(=O)c2ccc(C#CC3CC3)cc2O[C@@H]1CN(C)Cc1ccccc1F` stands inactive: 0.92; under `CCS(=O)(=O)Nc1ccc2c(c1)C(=O)N(C)[C@H]1CC[C@@H](CC(=O)NCc3ccccc3F)O[C@H]1CO2`, inactive: 1; under `C[C@H](CO)N1C[C@H](C)[C@H](CN(C)S(=O)(=O)c2ccc(F)cc2)OCCCC[C@H](C)Oc2ccc(NC(=O)CCCCCC(=O)Nc3ccccc3N)cc2C1=O`, inactive: 0.999.
Regarding `CN1CCN(C(=O)C[C@H]2C[C@@H]3c4cc(NC(=O)c5ccc6c(c5)OCO6)ccc4O[C@@H]3[C@H](CO)O2)CC1`, the relative growth is inactive: 0.987.
Then `Cc1noc(C)c1NC(=O)Nc1ccc2c(c1)C(=O)N([C@H](C)CO)C[C@H](C)[C@H](CN(C)C(=O)Nc1cccc3ccccc13)OCCCC[C@H](C)O2`, with inactive: 0.967; and `C[C@H]1COC(=O)[C@@H](Cc2ccc(F)cc2)CCC=CC[C@@H](CC(=O)N[C@@H](CO)Cc2ccccc2)C(=O)N1`, with inactive: 0.986.
Consider `COc1ccc(CN(C)C[C@H]2OCCCC[C@@H](C)Oc3ccc(NS(=O)(=O)c4ccc(F)cc4)cc3C(=O)N([C@@H](C)CO)C[C@@H]2C)cc1`, for which the relative growth is inactive: 1.01.
Under `C[C@H](CO)N1C[C@H](C)[C@@H](CN(C)CC2CCCCC2)OCCCC[C@H](C)Oc2ccc(NC(=O)NC3CCCCC3)cc2C1=O` stands inactive: 1.01; under `COc1ccc(NC(=O)N(C)C[C@@H]2OCCCC[C@@H](C)Oc3ccc(NC(=O)Nc4ccc(F)cc4)cc3C(=O)N([C@H](C)CO)C[C@H]2C)cc1`, inactive: 1.03; under `CN(C)CCCn1ccnc1-c1cnc(N)nc1`, inactive: 0.996.
As to `O=C(O)CCc1nc2ccccc2[nH]c1=O`, the relative growth was inactive: 0.998.
Consider `CC(C)CC#Cc1ccc2c(c1)O[C@H](CN(C)C(=O)c1ccncc1)[C@@H](C)CN([C@H](C)CO)S2(=O)=O`, for which the relative growth was inactive: 0.993.
Under `C[C@H]1CN([C@@H](C)CO)C(=O)Cc2cc(NC(=O)Nc3cccc4ccccc34)ccc2O[C@@H]1CN(C)S(=O)(=O)c1ccc(Cl)cc1` stands inactive: 1.04.
Under `Cc1ccc(S(=O)(=O)Nc2ccc3c(c2)CC(=O)N([C@@H](C)CO)C[C@@H](C)[C@@H](CN(C)Cc2ccc(C(F)(F)F)cc2)O3)cc1` stands inactive: 1; under `CCCC#Cc1cnc2c(c1)C(=O)N([C@@H](C)CO)C[C@@H](C)[C@@H](CN(C)S(=O)(=O)c1cn(C)cn1)O2`, inactive: 1.01; under `C[C@@H]1CN([C@@H](C)CO)C(=O)CCCn2cc(nn2)CO[C@@H]1CN(C)C(=O)C1CC1`, inactive: 0.968.
Under `Cc1noc(C)c1S(=O)(=O)Nc1ccc2c(c1)CC(=O)N([C@H](C)CO)C[C@H](C)[C@@H](CN(C)C(=O)Nc1ccc3c(c1)OCO3)O2` stands inactive: 1; under `COc1ccc(NC(=O)Nc2ccc3c(c2)C(=O)N([C@H](C)CO)C[C@H](C)[C@@H](CN(C)C(=O)c2ccccc2)OCCCC[C@H](C)O3)cc1`, inactive: 1.
Take `C[C@@H]1CCCCO[C@@H](CN(C)C(=O)Nc2ccccc2)[C@H](C)CN([C@@H](C)CO)C(=O)c2cc(NC(=O)Nc3ccc4c(c3)OCO4)ccc2O1`: the relative growth was inactive: 0.999.
Under `COC1(NC(=O)C2SC(=C(C(N)=O)C(=O)O)S2)C(=O)N2C(C(=O)O)=C(CSc3nnnn3C)CSC21` (configuration not stated) stands active: 0.0448; under `CCO[C@@H]1OC(C(=O)N2CCN(Cc3ccccc3)CC2)=C[C@H](c2ccc(C(F)(F)F)cc2)[C@H]1CCCOC(=O)NCCCCCC(=O)NO`, inactive: 0.967; under `C[C@@H]1CN([C@H](C)CO)C(=O)c2cc(NS(=O)(=O)c3ccc(Cl)cc3)ccc2O[C@@H]1CN(C)S(C)(=O)=O`, inactive: 0.977.
Then `COc1cccc(C#Cc2ccc3c(c2)O[C@@H](CN(C)C(C)=O)[C@H](C)CN([C@H](C)CO)S3(=O)=O)c1`, with inactive: 1; and `CN1C(=O)c2cc(NC(=O)Cc3cccs3)ccc2OC[C@H]2O[C@H](CC(=O)NCc3ccc(-c4ccccc4)cc3)CC[C@@H]21`, with inactive: 1.02.
On to `C[C@@H]1O[C@@H](O[C@@H]2[C@@H](O)[C@H](OCCc3ccc(O)c(O)c3)O[C@H](CO)[C@H]2O)[C@H](O)[C@H](O)[C@H]1O`, for which the relative growth was inactive: 1.02.
Then `Cc1noc(C)c1NC(=O)N(C)C[C@@H]1Oc2ccc(NC(=O)NC(C)C)cc2CC(=O)N([C@@H](C)CO)C[C@H]1C`, with inactive: 1; and `Cc1cccc(NC(=O)Nc2ccc3c(c2)C(=O)N(C)[C@@H]2CC[C@H](CC(=O)NCc4ccccc4Cl)O[C@H]2CO3)c1`, with inactive: 1.
With `CC1(C)CC(Nc2ccc(Nc3ccccc3)cc2)CC(C)(C)N1`, the relative growth was inactive: 1.02.
Regarding `Cc1ccc(S(=O)(=O)N(C)C[C@@H]2OCCCC[C@@H](C)Oc3ccc(NC(=O)NC4CCCCC4)cc3C(=O)N([C@H](C)CO)C[C@@H]2C)cc1`, the relative growth is inactive: 1.
Under `COc1ccc(S(=O)(=O)Nc2ccc3c(c2)C(=O)N([C@@H](C)CO)C[C@@H](C)[C@@H](CN(C)S(C)(=O)=O)O3)cc1` stands inactive: 1; under `Cc1noc(C)c1NC(=O)N(C)C[C@H]1OCCCC[C@@H](C)Oc2ccc(NS(=O)(=O)c3ccc(Cl)cc3)cc2C(=O)N([C@@H](C)CO)C[C@@H]1C`, inactive: 0.971; under `C[C@@H]1CN([C@@H](C)CO)C(=O)c2cc(NC(=O)Nc3cccc4ccccc34)ccc2O[C@H]1CN(C)Cc1ccncc1`, inactive: 0.998.
Turning to `C[C@@H]1CN([C@H](C)CO)C(=O)c2cc(N(C)C)ccc2O[C@@H](C)CCCCO[C@H]1CN(C)S(C)(=O)=O`, the relative growth was inactive: 0.968.
Under `C[C@@H]1CN([C@H](C)CO)C(=O)c2cc(Br)cnc2O[C@@H]1CN(C)Cc1ccc2c(c1)OCO2` stands inactive: 1; under `COc1ccc(C#Cc2ccc3c(c2)[C@H]2[C@H](CCN2C(=O)Nc2ccc(C(F)(F)F)cc2)[C@H](CO)N3C)cc1`, inactive: 1.01; under `N=C(NO)C(=O)Nc1ccccc1`, inactive: 0.997.
Then `O=C(C[C@H]1C=C[C@@H](NC(=O)C2CC2)[C@H](CO)O1)NCCCN1CCOCC1`, with inactive: 0.991.
Take `O=S1(=O)C[C@H](NCc2cccnc2)[C@@H](O)C1`: the relative growth is inactive: 1.
Then `COc1cccc(-c2cnc3c(c2)C(=O)N([C@H](C)CO)C[C@H](C)[C@H](CN(C)S(=O)(=O)c2cccs2)O3)c1`, with inactive: 1; and `Cc1noc(C)c1NC(=O)Nc1ccc2c(c1)C(=O)N([C@@H](C)CO)C[C@H](C)[C@@H](CN(C)C(=O)Nc1ccc(F)cc1)OCCCC[C@H](C)O2`, with inactive: 1.01.
On to `C[C@@H]1CCCCO[C@H](CN(C)C(=O)c2ccccc2)[C@@H](C)CN([C@H](C)CO)C(=O)c2cc(NC(=O)C3CCCCC3)ccc2O1`, for which the relative growth was inactive: 0.997.
Consider `c1ccc(-n2nnnc2CN2CCOCC2)cc1`, for which the relative growth is inactive: 1.04.
Then `O=C1CNCCN1C1CCCC1`, with inactive: 0.973.
In the case of `C[C@@H]1CN([C@@H](C)CO)C(=O)c2cc(C#CC(C)(C)O)cnc2O[C@@H]1CN(C)C(=O)CN(C)C`, the relative growth was inactive: 0.998.
For the compound `C[Se]CCC(N)C(=O)O` (configuration not stated), the relative growth is inactive: 1.05.
Under `C[C@@H]1CCCCO[C@H](CN(C)Cc2ccc(C(F)(F)F)cc2)[C@H](C)CN([C@H](C)CO)C(=O)c2cc(NC(=O)c3ccccc3)ccc2O1` stands inactive: 1.04; under `C[C@@H]1CN([C@@H](C)CO)C(=O)c2cccc(NC(=O)Nc3ccc(C(F)(F)F)cc3)c2O[C@H]1CN(C)C(=O)Nc1ccc2c(c1)OCO2`, inactive: 0.931; under `C[C@H](CO)N1C[C@H](C)[C@@H](CN(C)C(=O)CN(C)C)Oc2cc(C#Cc3cccnc3)ccc2S1(=O)=O`, inactive: 1.02.
Regarding `C[C@H](CO)N1C[C@H](C)[C@@H](CN(C)C(=O)Nc2ccccc2)Oc2c(NS(=O)(=O)c3cn(C)cn3)cccc2C1=O`, the relative growth was inactive: 0.949.
Then `CC(CCc1ccc(O)cc1)NCC(O)c1ccc(O)cc1.Cl` (configuration not stated), with inactive: 1.07.
Under `Cc1ccc(S(=O)(=O)Nc2ccc3c(c2)CC(=O)N([C@@H](C)CO)C[C@@H](C)[C@H](CN(C)S(=O)(=O)c2ccc(F)cc2)O3)cc1` stands inactive: 1.02; under `Cc1nn2c(N)csc2nc1=O`, inactive: 1.02.
Under `C[C@H]1CN([C@@H](C)CO)C(=O)Cc2cc(NS(C)(=O)=O)ccc2O[C@H]1CN(C)Cc1ccc2c(c1)OCO2` stands inactive: 0.973; under `C[C@@H]1CCCCO[C@H](CN(C)C(=O)Cc2ccccc2)[C@H](C)CN([C@@H](C)CO)C(=O)c2cc(NC(=O)NC3CCCCC3)ccc2O1`, inactive: 0.999.
As for `COc1ccccc1S(=O)(=O)N[C@H]1CC[C@H](CCNC(=O)C2CCOCC2)O[C@@H]1CO`, the relative growth was inactive: 1.
`Cc1cccc(NC(=O)Nc2ccc3c(c2)C(=O)N(C)[C@H]2CC[C@@H](CC(=O)NCc4ccccc4Cl)O[C@@H]2CO3)c1`: the relative growth was inactive: 1.02.
Under `COc1cccc(N2CCN(C3=Nc4c(F)cccc4[C@H](CC(=O)O)N3c3cc(C(F)(F)F)ccc3OC)CC2)c1` stands inactive: 0.947; under `C[C@@H]1CCCCO[C@H](CN(C)C(=O)Nc2cccc3ccccc23)[C@H](C)CN([C@@H](C)CO)C(=O)c2cc(NS(C)(=O)=O)ccc2O1`, inactive: 0.984.
Then `C[C@@H]1CN([C@@H](C)CO)C(=O)c2cc(NC(=O)C3CC3)ccc2O[C@H]1CN(C)S(=O)(=O)c1ccccc1`, with inactive: 1.01; and `C[C@H](CO)N1C[C@H](C)[C@H](CN(C)C(=O)Nc2cccc3ccccc23)OCCCC[C@H](C)Oc2ccc(NC(=O)CCC(F)(F)F)cc2C1=O`, with inactive: 0.975; and `C[C@@H]1CN([C@H](C)CO)S(=O)(=O)c2ccc(C#Cc3ccncc3)cc2O[C@H]1CN(C)C(=O)C1CCCCC1`, with inactive: 1.02.
